Among all 310,000 compounds or so, about 2,200 (0.71%) showed an effect of 50% or more. The effect is printed as a negative number. The list shows a part of the results.
Target: human ether-à-go-go-related gene (hERG) potassium channel (human, UniProt Q12809)
Test: primary screen, population patch clamp on CHO cells stably expressing hERG

Sequence of human ether-à-go-go-related gene (hERG) potassium channel (Q12809 whole entry, looked up): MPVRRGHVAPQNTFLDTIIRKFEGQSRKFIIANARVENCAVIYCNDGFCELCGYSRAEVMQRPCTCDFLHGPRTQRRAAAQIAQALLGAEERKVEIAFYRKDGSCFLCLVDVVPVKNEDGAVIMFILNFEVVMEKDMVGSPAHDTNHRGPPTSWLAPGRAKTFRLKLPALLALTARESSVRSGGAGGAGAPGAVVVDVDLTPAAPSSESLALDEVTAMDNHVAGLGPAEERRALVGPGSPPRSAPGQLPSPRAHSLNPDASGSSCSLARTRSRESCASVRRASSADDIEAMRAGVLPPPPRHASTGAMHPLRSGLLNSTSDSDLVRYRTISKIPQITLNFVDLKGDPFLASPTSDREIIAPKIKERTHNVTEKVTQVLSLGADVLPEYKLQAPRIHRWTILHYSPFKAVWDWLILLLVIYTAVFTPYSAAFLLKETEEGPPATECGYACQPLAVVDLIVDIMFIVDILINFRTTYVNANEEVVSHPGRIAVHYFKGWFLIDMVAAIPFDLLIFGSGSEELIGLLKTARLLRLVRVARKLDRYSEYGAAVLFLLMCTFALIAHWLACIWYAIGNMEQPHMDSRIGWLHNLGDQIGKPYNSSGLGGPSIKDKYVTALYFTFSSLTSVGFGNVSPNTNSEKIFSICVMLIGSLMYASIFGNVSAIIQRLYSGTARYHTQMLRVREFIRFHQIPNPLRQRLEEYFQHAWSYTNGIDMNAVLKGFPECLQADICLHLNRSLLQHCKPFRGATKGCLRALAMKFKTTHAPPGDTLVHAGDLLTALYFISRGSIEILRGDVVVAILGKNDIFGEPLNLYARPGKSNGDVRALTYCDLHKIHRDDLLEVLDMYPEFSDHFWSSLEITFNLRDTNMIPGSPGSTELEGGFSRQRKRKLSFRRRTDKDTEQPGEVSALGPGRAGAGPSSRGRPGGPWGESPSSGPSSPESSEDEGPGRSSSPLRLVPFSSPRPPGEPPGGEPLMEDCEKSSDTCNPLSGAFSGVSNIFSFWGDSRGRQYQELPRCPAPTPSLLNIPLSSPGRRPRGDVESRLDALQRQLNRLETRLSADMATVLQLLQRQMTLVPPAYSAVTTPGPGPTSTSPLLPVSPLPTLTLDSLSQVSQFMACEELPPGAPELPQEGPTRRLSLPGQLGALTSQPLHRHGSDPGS

Compound | hERG current change (%, negative = inhibition) at 1uM [%]
O=S(=O)(Nc1ccncc1Cl)c1cccc(Cl)c1Cl | 15.2
CC(C)=CCN1CCN(Cc2cnc(N3CCCC3)s2)CC1CCO (centres unmarked) | 16.5
Cc1c(NC(=O)COC(=O)CSc2ccc([N+](=O)[O-])cc2)c(=O)n(-c2ccccc2)n1C | 13.1
O=C(NNc1nc2ccccc2s1)c1ccccc1F | 7.39
COc1ccc(CC(=O)NNC(=O)c2ccoc2C)cc1OC | 6.03
Cc1cc2nc(C(F)(F)F)cc(-c3cccs3)n2n1 | 14.7
O=C(NCc1ccc(F)cc1)C(=O)NCC1OCCN1S(=O)(=O)c1cccs1 (centres unmarked) | 4.54
O=C(Cc1c(F)cccc1Cl)N1CCN(S(=O)(=O)c2cccc(F)c2)CC1 | 8.38
CCc1ccc(N2CC(C(=O)OCC(=O)Nc3ccccc3C)CC2=O)cc1 (centres unmarked) | 11.7
COc1ccc(CCNC(=O)c2ccc3c(c2)S(=O)(=O)N=C2CCCCCN23)cc1 | -6.9
N#C/C(=C(\O)c1ccco1)c1ccccn1 | 4.24
COc1ccc(-n2c(SC(C)C(=O)Nc3ncc(Cl)cc3Cl)nc3ccccc32)cc1 (centres unmarked) | 8.24
CCCC(C(=O)NC1CCCC1)N(Cc1ccc(F)cc1)C(=O)c1snc(C(N)=O)c1N (centres unmarked) | -12.5
Cc1ccnc(NC(=O)CCC(=O)N(CC(=O)NCc2ccc(F)cc2)c2cccc(F)c2)c1 | 5.95
N#Cc1ccc(CSc2nnc(NC(=O)CCc3nc4ccccc4c(=O)[nH]3)s2)cc1 | 17.3
COc1ccc(N2CCN(C3CCCN(C(=O)CSC)C3)CC2)cc1 (centres unmarked) | 13.5
Cc1cccc(C)c1NS(=O)(=O)c1cc2c3c(c1)CCN3C(=O)CC2 | -0.436
Cc1ccc(S(=O)(=O)N(C)c2ccc(OCC(=O)NCc3ccco3)cc2)cc1 | -10.8
CCCCC(CC)COC(=O)c1ccccc1C(=O)OCC(CC)CCCC (centres unmarked) | 11.4
O=C(CN1CCCc2ccccc21)NCCc1ccc(Cl)cc1 | 0.996
Cc1cc(C)n(CCC(=O)N2CCN(S(=O)(=O)c3ccccc3)CC2)n1 | 15.1
O=C(/C=C/c1ccccc1)NCCc1ccccc1 | 9.78
c1ccc(-n2nnc3ccccc32)nc1 | 10.6

Compound | hERG current change (%, negative = inhibition) at 1uM [%]
COc1ccc(Cl)cc1NC(=O)CN(C)C(=O)CCC(=O)c1cc(C)sc1C | 9.57
C=CCN(C(=O)c1csnn1)C(C(=O)NC1CCCC1)c1ccc(F)cc1 (centres unmarked) | 10.4
C/C(=N\Nc1ccccn1)c1ccc2c(c1)OCO2 | 3.76
S=C1NC(c2ccccc2)=NCN1c1ccc(Br)cc1 | 15.2
C[C@H]1CC[C@H]2NCCN[C@H]2C1 | 9.98
Cc1ccc(S(=O)(=O)N2CCN(c3ccc(C(F)(F)F)cc3[N+](=O)[O-])CC2)cc1 | 2.51
CCNc1nc(NCC)nc(N/N=C/c2ccc(O)c(O)c2)n1 | 5.39
COc1cccc(N=Nc2c(=O)[nH]n3c(C)cc(C)nc23)c1 | 1.81
CC1(C)Cc2ccccc2C(=NCCCC(=O)O)N1 | 11.4
C=CCn1c(O)c(C(C)=Nc2cccc(C(F)(F)F)c2)c(=O)[nH]c1=O | 3.24
CCOC(=O)CNC(=O)N1c2ccccc2Sc2ccccc21 | 9.47
CCOC(=O)C1=C(C)Nc2nc(SCc3cccnc3)nn2C1c1ccc(OC)cc1 (centres unmarked) | 4.77
COC(=O)C1=C(C)N(C2CCCCC2)C(=O)/C1=C\c1cccs1 | 10.5
COc1cccc(C2CC(c3c(F)cccc3Cl)n3nc(N)nc3N2)c1 (centres unmarked) | 4.54
S=c1[nH]cnc2sc(Nc3ccccc3)nc12 | 18
Cc1c(OC(C)C(=O)NCC2CCC(C(=O)O)CC2)ccc2c3c(c(=O)oc12)CCCC3 (centres unmarked) | 12.7
O=C1CC(c2ccccc2)CC(O)=C1C=NCCN1CCN(C(=O)Nc2ccccc2)CC1 (centres unmarked) | -9.19
OCCCNC(=S)Nc1ccc2nccnc2c1 | 5.82
COc1ccc(-c2cn(CCO)nc2-c2ccc(OC)cc2)cc1 | 7.36
O=C(NNS(=O)(=O)c1ccc(Br)cc1)c1cccs1 | 9.77
COc1cc2[nH]c(C(=O)N3CCC4(CC3)OCCO4)cc2c(OC)c1OC | 9.77
CCc1cccc2c(C#N)cn(CC(=O)NCCOC)c12 | 5.64
O=C(Nc1c[nH]c(=O)[nH]c1=O)c1ccccc1Cl | 16.5

Compound | hERG current change (%, negative = inhibition) at 1uM [%]
Cc1cc(C)cc(OCC(=O)OCC(=O)Nc2cc(S(=O)(=O)N3CCOCC3)ccc2C)c1 | 8.4
N#CC1(NC(=O)COC(=O)c2nccnc2N)CCCCC1 | -1.63
O=C(O)c1ccccc1/C=N/Nc1ccc(S(=O)(=O)N2CCCC2)cc1[N+](=O)[O-] | 11.9
CC(C)(C)NC(=O)NC(=O)CN1CCCCC1 | 13.5
O=C(N/N=C/c1cccnc1)c1cc(-c2ccccc2OCc2ccccc2)n[nH]1 | 1.5
COc1ccc(/C=N/n2cnc3c([nH]c4ccc(F)cc43)c2=O)cc1CN1CCCC1 | -12.4
COc1ccc(C)cc1NC(=O)COC(C)=O | 3.78
CCCc1c(C)nc(N2CCN(c3ccc(F)cc3)CC2)[nH]c1=O | 8.77
O=C(CNC(=O)c1ccc(Cl)cc1)OCCCOC(=O)CNC(=O)c1ccc(Cl)cc1 | 6.89
NC(=O)C1CCCN(C(=O)c2cccc(S(=O)(=O)N(Cc3ccccc3)c3ccccc3)c2)C1 (centres unmarked) | -3.93
O=[N+]([O-])c1cccc(NN=Nc2ccccc2)c1 | 14.2
C=CCOc1ccc(/C=N/NC(=O)C(C)Sc2ccccn2)cc1OCC (centres unmarked) | -6.14
CCOC(=O)Nc1ccc2c(CN3C(=O)NC(CC)(CC)C3=O)cc(=O)oc2c1 | -1.2
Cc1ccc(-c2nc(CS(=O)(=O)CC(=O)NCCN3CCCC3)c(C)o2)cc1 | 7.76
COc1cc(C2Nc3cc(C)c(C)cc3NC3=C2C(=O)CC(C)(C)C3)ccc1OC(C)=O (centres unmarked) | 13.6
C=CCn1c2ccccc2c(=O)c2cc(C#Cc3ccsc3)ccc21 | 4.34
CCCN1CCN(C(=O)c2ccc(F)c(S(=O)(=O)N3CCOCC3)c2)CC1.Cl | 9.97
O=C(Nc1ccc(S(=O)(=O)Nc2nccs2)cc1)C1CCCCC1 | -4.32
COc1ccc(CNC(=O)c2cc3cccc(OC)c3oc2=N)cc1 | 11.6
COc1ccc(N2CC2c2ccncc2)cc1 (centres unmarked) | 25.2
Cc1ccc(S(=O)(=O)N(C)Cc2ccc(C(=O)N/N=C3\CC(=O)CC(C)(C)C3)cc2)cc1 | -1.36
COc1ccc(OC)c(CCNC(=O)CC2Oc3ccccc3NC2=O)c1 (centres unmarked) | -2.47
COC(=O)c1cc(=O)n(Cc2ccc(OC)c(OC)c2)c(=Nc2ccc(F)cc2)s1 | 10

Compound | hERG current change (%, negative = inhibition) at 1uM [%]
Cc1nn(CSc2c(F)c(F)c(F)c(F)c2F)c(C)c1[N+](=O)[O-] | 11.2
COc1cccc(CNC(=O)C2CCN(S(=O)(=O)c3cnc[nH]3)CC2)c1 | 9.74
COc1cc([N+](=O)[O-])ccc1NC(=O)Nc1ccc(C(=O)N2CCCC2)cc1 | -8.5
Cc1ccc(C)n1-c1nn(S(=O)(=O)c2cccc3cccnc23)c2cccc(F)c12 | 15
OCCN(CC#CCn1c2ccccc2c2ccccc21)CCO | 11.4
NC(=O)c1ccc(N2CCCCC2)c(N2C(=O)CCC2=O)c1 | -11.5
COc1ccc(-c2noc(CCCC(=O)NC3CCCCC3)n2)cc1OC | 19.7
CSc1n[nH]c(NC2=CC(=O)CCC2)n1 | 15
O=C1c2cccnc2C(=O)N1Cc1ccc(S(=O)(=O)N2CCOc3ccc(Cl)cc32)cc1 | 17.4
O=C(c1ccccc1F)N1CCN=C1c1ccccc1 | 9.15
COc1ccc(Nc2n[nH]c(C)c2[N+](=O)[O-])cc1 | 14.7
CCP(=O)(CC)c1cccc(N)c1 | 2.05
Cc1cc(Cl)c(S(=O)(=O)NCCC(=O)O)cc1OCC(N)=O | 10.5
CCOC(=O)c1cccc(NC(=O)CNC(=O)C2CCCCC2)c1 | 7.91
COc1ccc(-n2nnnc2SCC(=O)NC2CC2)cc1 | 9.5
O=C(NC1=NCCS1)c1sc2cc(F)ccc2c1Cl | 18.9
CCn1cc([N+](=O)[O-])c(C(=O)N2N=C(c3ccc4ccccc4c3)CC2c2cc(Br)ccc2O)n1 (centres unmarked) | 11.1
NC1=NC[C@H](Cc2ccc(O)cc2)N1CC1CCCCC1 | 13.1
O=C(C[n+]1ccccc1)N/N=C/c1cc(Br)ccc1O.[Cl-] | 12.4
CC1(C)CC(=O)C(Sc2nnc(-c3ccc(O)cc3)n2CC2CCCO2)C(=O)C1 (centres unmarked) | 19.4

From paper PMC4336329 (PLoS ONE, 2015)
